Test results taken from paper PMC4336329 (PLoS ONE, 2015).
Among all 310,000 compounds or so, about 2,200 (0.71%) showed an effect of 50% or more. Effects have a minus sign here. The list shows a part of the results.

What follows are compounds tested against human ether-à-go-go-related gene (hERG) potassium channel (human, UniProt Q12809) (assay: primary screen, population patch clamp on CHO cells stably expressing hERG).
Chain of human ether-à-go-go-related gene (hERG) potassium channel (Q12809 whole entry, looked up): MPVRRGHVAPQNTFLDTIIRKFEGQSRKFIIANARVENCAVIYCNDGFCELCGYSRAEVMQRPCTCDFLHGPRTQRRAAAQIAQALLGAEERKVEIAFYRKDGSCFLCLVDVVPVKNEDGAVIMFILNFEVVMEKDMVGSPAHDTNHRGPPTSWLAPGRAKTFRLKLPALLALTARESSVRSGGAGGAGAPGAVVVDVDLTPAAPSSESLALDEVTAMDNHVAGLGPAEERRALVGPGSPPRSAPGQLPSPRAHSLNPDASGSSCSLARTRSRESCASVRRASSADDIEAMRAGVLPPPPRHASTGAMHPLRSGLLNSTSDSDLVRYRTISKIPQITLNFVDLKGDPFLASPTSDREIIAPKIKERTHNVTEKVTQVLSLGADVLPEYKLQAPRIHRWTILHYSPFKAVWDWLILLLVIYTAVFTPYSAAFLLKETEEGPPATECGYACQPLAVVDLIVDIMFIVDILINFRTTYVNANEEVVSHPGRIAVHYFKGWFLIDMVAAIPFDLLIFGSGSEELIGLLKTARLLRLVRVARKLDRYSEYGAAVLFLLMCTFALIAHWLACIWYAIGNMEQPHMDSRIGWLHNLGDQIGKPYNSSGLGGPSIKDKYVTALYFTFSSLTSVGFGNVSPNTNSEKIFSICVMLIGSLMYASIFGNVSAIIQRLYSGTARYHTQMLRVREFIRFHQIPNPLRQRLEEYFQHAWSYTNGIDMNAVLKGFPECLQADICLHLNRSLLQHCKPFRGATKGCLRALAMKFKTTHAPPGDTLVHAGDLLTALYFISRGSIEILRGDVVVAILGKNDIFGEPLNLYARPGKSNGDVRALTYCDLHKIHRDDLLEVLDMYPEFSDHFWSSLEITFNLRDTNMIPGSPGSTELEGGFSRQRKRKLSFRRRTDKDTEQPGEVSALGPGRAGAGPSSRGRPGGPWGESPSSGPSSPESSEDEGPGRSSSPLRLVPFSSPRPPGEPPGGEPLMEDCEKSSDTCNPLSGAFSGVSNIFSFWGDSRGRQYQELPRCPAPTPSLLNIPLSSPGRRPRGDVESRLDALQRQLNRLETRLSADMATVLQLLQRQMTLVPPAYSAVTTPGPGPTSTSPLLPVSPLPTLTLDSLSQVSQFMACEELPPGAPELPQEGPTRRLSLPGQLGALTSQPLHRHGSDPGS

Row | SMILES | hERG current change (%, negative = inhibition) at 1uM
1 | O=C(CCc1nc2sc3c(c2c(=O)[nH]1)CCCC3)NCC(=O)Nc1ccccc1Br | 14.3%
2 | C#CCOCCOCCOCCNc1nc(N2CCN(C(=O)CCCCCCCCCCNC(=O)[C@@H](CCSC)n3cc(CCO)nn3)CC2)nc(N2CCN(C(=O)CCCCCCCCCCNC(=O)[C@@H]([C@H](C)O)n3cc(C)nn3)CC2)n1 | 14.1%
3 | COc1cccc(NC(=O)CCNC(=O)Cn2ccc3ccccc3c2=O)c1 | 5.93%
4 | CCOC(=O)c1cn(-c2ccc([N+](=O)[O-])cc2)c2cc(Cl)c([N+](=O)[O-])cc2c1=O | 11.8%
5 | COc1cc(-c2n[nH]c(=S)n2C(C)c2ccccc2)cc(OC)c1OC (centres unmarked) | 12%
6 | COc1ccc(-c2ccnc3nc(-n4cccc4)nn23)cc1 | -3.22%
7 | O=C(CCCc1nc2ccccc2s1)NCc1cccnc1 | -1.72%
8 | COc1cc(O)c2c(=O)c(-c3ccc(O[C@@H]4O[C@H](CO)[C@@H](O)[C@H](O)[C@H]4O)cc3)coc2c1 | 11.9%
9 | COCc1ccccc1Cn1cnc2c1c(=O)n(C)c(=O)n2C | 10.8%
10 | CC(Oc1ccc(Cl)cc1Cl)C(=O)OCC(=O)c1c(N)n(C)c(=O)n(C)c1=O (centres unmarked) | -57.5%
11 | OCCC1CN(Cc2cccc(F)c2F)CCN1CCc1ccccc1 (centres unmarked) | -13.8%
12 | CCOc1ccc(CNC(=O)CCS(=O)(=O)Cc2ccccc2C)cc1OC | 13.7%
13 | COc1ccc(CN(C(=S)Nc2ccccc2)C2CC(=O)N(c3ccc(F)cc3)C2=O)cc1 (centres unmarked) | 15%
14 | CC(c1ccccc1)N1C(=O)c2ccccc2C1O (centres unmarked) | 2.24%
15 | O=C(c1cnn2c(C(F)(F)F)cc(-c3ccc4c(c3)OCO4)nc12)N1CCCC1 | 2.46%
16 | COCCCOc1ccnc(CS(=O)c2nc3ccccc3[nH]2)c1C (centres unmarked) | 10.9%
17 | COC(=O)C1=C(c2ccc(C(C)=O)cc2)C[C@@H]2CC[C@H]1N2C(=O)NCc1ccc(F)cc1 | -6.42%
18 | COc1cc(C)nc2nc(SCc3ccccc3)nn12 | 11.5%
19 | CC1=Nc2ccccc2/C1=C\c1nc(-c2ccccc2)oc1O | 14.9%
20 | CCOC(=O)N1CCN(S(=O)(=O)c2ccc(C(=O)N(CCN(CC)CC)c3nc4c(C)cccc4s3)cc2)CC1.Cl | 5.11%
21 | COc1ccc(C(C)NC(=O)Cc2ccc(Br)cc2)cc1 (centres unmarked) | 10.8%
22 | COC(=O)c1cc(-c2ccc(Br)cc2)n[nH]1 | 13.4%
23 | CC(=O)OC1CC(C)(C)N(OC(=O)c2ccccc2)C(C)(C)C1 | 9.91%
24 | O=C(Cc1ccccc1)Nc1ccnn1C1CCN(Cc2nccs2)CC1 | 9.91%
25 | C(=N/Nc1cc(N2CCOCC2)nc(N2CCOCC2)n1)/c1ccccc1 | -7.51%
26 | COc1ccccc1CNC(=O)CSc1nc(N)c(C#N)c(-c2cccs2)c1C#N | 7.57%
27 | Cn1cnc(S(=O)(=O)Nc2ccc3c(c2)OCCO3)c1 | 12.7%

Row | SMILES | hERG current change (%, negative = inhibition) at 1uM
28 | COc1ccc(-c2noc(C(C)NS(=O)(=O)c3ccc(NC(C)=O)cc3)n2)cc1 (centres unmarked) | 15.7%
29 | Cl.O=C(COc1ccc(Cl)cc1)NC1CN2CCC1CC2 (centres unmarked) | -10.3%
30 | CCOc1ccc(S(=O)(=O)NCCC(=O)NCCc2ccc(C(C)C)cc2)cc1 | 13.9%
31 | CC(C)CNC(=O)C1CCN(c2ccc(S(=O)(=O)N3CCOCC3)cc2Cl)CC1 | -3.2%
32 | Cc1cc(C)n(-c2ccc(N3CCOCC3)nn2)n1 | 12.2%
33 | Cc1ccccc1NC(=O)CC1(c2ccc(N(C)C)cc2)C(=O)c2ccccc2C1=O | 10.3%
34 | O=C(COC(=O)COc1ccc(Nc2ccccc2)cc1)NCc1ccco1 | 14.5%
35 | O=C(/C=C/c1ccco1)Nc1ccc(N2CCCC2)cc1 | 12.4%
36 | C=CCn1cc(C(=O)N2CCN(c3ccccc3)CC2)c(=O)c2cc(S(=O)(=O)N3CCCC3)ccc21 | 18.7%
37 | CC(=O)c1cccc(NC(=O)c2cnccn2)c1 | 6.01%
38 | CCCc1nc(SCC(=O)N2CCC(Cc3ccccc3)CC2)c2c(=O)n(C)c(=O)n(C)c2n1 | 2.07%
39 | Cc1ccc(Cn2ncc3c(N4CCN(CCc5ccccc5)CC4)ncnc32)cc1 | 5.95%
40 | CC(=O)Oc1cccc(Nc2ncnc3ccccc23)c1 | 10.7%
41 | CN1CCN(c2cc(N3CCc4ccccc4C3)c(F)cc2[N+](=O)[O-])CC1 | 3.61%
42 | N#Cc1c(NC(=O)c2cc([N+](=O)[O-])ccc2N2CCOCC2)sc2c1CCCC2 | 7.82%
43 | CCNc1nc(NC(C)C)nc(OCCNS(=O)(=O)c2cc(C)ccc2C)n1 | -9.05%
44 | CCOC(=O)N1CCC(N2Cc3cccc(C(=O)N4CCN(C5CCCCC5)CC4)c3C2=O)CC1 | -32.6%
45 | Cc1cc2nc(CN(C)Cc3c(C(=O)N(C)C)nc4ccc(Cl)cn34)[nH]c2cc1C | -7.56%
46 | COc1cc(NC(=O)CSc2nncn2C)c(C)cc1[N+](=O)[O-] | 19.9%
47 | Cc1cc(OCC(O)CN2CCN(c3ccccn3)CC2)cc(C)c1Cl.Cl (centres unmarked) | 5.25%
48 | O=S(=O)(CCSc1ccccn1)c1nc2ccccc2s1 | 13.4%
49 | CCN(CC)C(=O)C[n+]1cccc(/C=N/O)c1 | 12.3%
50 | O=C1Nc2ccccc2C(=O)C1(Cl)Cc1ccccc1 (centres unmarked) | 7.8%
51 | COc1ccc(NC(=O)C2CC(=O)OC2(C)C)cc1 (centres unmarked) | 15.2%
52 | S=C(Nc1cccnc1)N1CCCCC1 | 12.1%
53 | O=C(NC1CCCCC1)C1(S(=O)(=O)c2ccc(Cl)cc2)CC1 | 5.66%
